Among all 310,000 compounds or so, about 14,000 (4.5%) showed an effect of 50% or more. The effect is printed as a negative number. Some of the results follow.
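Also: peak tail current of the secondary pulse compared with the same well before compound.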

In this experiment the target is human ether-à-go-go-related gene (hERG) potassium channel (human, UniProt Q12809). The experiment is described as follows: primary screen, population patch clamp on CHO cells stably expressing hERG.
human ether-à-go-go-related gene (hERG) potassium channel, sequence (Q12809 whole entry, looked up): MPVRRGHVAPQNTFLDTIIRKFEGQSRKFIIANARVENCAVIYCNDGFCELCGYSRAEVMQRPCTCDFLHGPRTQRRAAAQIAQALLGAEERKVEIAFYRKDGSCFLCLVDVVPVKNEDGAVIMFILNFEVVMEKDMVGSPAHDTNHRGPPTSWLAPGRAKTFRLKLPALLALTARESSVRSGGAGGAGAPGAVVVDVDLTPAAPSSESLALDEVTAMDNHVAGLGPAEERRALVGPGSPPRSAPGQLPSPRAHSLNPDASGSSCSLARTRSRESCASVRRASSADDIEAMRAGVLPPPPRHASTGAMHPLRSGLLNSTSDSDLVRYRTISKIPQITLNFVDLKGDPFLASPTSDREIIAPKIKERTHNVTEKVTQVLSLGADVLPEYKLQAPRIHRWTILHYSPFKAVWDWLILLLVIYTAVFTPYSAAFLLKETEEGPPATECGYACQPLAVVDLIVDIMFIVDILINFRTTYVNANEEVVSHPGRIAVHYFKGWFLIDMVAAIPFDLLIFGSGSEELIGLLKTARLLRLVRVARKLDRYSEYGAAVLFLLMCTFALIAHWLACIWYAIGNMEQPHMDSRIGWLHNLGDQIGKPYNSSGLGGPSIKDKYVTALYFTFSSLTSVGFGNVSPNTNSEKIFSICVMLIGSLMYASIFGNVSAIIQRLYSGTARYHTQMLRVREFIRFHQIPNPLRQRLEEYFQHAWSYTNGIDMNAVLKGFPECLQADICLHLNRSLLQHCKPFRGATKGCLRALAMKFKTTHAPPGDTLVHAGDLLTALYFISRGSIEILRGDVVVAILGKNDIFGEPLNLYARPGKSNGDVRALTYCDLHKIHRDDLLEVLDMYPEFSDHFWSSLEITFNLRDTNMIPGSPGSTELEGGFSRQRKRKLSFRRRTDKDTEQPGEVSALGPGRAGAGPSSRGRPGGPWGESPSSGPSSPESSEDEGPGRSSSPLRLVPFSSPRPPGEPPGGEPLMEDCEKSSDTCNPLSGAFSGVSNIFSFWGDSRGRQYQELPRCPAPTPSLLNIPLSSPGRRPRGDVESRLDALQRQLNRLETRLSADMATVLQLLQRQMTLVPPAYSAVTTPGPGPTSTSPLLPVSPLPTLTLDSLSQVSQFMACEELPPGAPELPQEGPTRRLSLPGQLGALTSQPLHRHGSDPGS
As to `CC(C)OC(=O)CSc1nc(N)c(C#N)c(-c2ccco2)c1C#N`, the “hERG current change (%, negative = inhibition) at 10uM” value is 4.97%. As to `COc1ccccc1NC(=O)c1ccc(SCC(=O)NCc2ccccc2Cl)c([N+](=O)[O-])c1`, the “hERG current change (%, negative = inhibition) at 10uM” value is -0.627%. To `CCOC(=O)C1CCCN(S(=O)(=O)c2ccc(NC(C)=O)cc2)C1` (centres unmarked) belongs 10.1%; to `Cc1c(NC(=O)C(=O)/C=C(/O)c2ccccc2)c(=O)n(-c2ccccc2)n1C`, 2.46%; to `CC(=O)/C=C1/C(=O)Nc2ccccc21`, -9.81%. To `COC(=O)CNC(=O)Cc1c(C)n(C(=O)c2ccc(Cl)cc2)c2ccc(OC)cc12` belongs -14.8%. As to `O=C(Nc1cccnc1Cl)c1cc2ccccc2o1`, the “hERG current change (%, negative = inhibition) at 10uM” value is on record as 6.92%. To `COc1ccc(-c2csc(NC(=O)c3ccc(N4C(=O)CCC4=O)cc3)n2)cc1OC` belongs 20.6%. In the case of `O=C(COc1cccc2c1CCN(Cc1ccccc1)C2=O)NCc1ccco1`, the “hERG current change (%, negative = inhibition) at 10uM” value was -70.3%. To `O=C(/C=C/c1ccccc1)NC1CCCc2ccccc21` (centres unmarked) belongs 39.7%; to `Cc1cccc(CC(C)NC(=O)c2oc3c(F)cccc3c2C)n1` (centres unmarked), 11.3%. For `O=C1c2ccccc2C(=O)N1CCc1csc(NNc2nc(CCN3C(=O)c4ccccc4C3=O)cs2)n1`, the “hERG current change (%, negative = inhibition) at 10uM” value is -13.9%.

Turning to `Cc1cc(C(=O)N2CCC(C(=O)O)CC2)c(C)o1`, the “hERG current change (%, negative = inhibition) at 10uM” value is recorded as 6.42%. Regarding `O=[N+]([O-])c1ccc(NC(=S)N2CCN(c3ccc(F)cc3)CC2)cc1`, the “hERG current change (%, negative = inhibition) at 10uM” value is 3.73%. To `Cc1oc(C(=O)O)cc1CSCc1ccoc1C(=O)O` belongs 7.26%.

Turning to `COc1ccc(O)c(C(=O)c2cnc3nc4ccccc4n3c2)c1`, the “hERG current change (%, negative = inhibition) at 10uM” value is reported as -12.8%. `COc1ccc(NC(=O)C(C)Sc2ccccc2)cc1` (centres unmarked): the “hERG current change (%, negative = inhibition) at 10uM” value is given as 1.14%. To `COc1ccc(C(C(=O)NC(C)C)N(C(=O)CCC(=O)Nc2nccs2)c2ccccc2F)cc1` (centres unmarked) belongs 13.2%. As for `O=C(O)C(Cc1ccccc1)NC(=O)C(c1ccccc1)c1ccccc1` (centres unmarked), the “hERG current change (%, negative = inhibition) at 10uM” value turned out to be 15%. To `O=C(Nc1ccc(S(=O)(=O)Nc2ncccn2)cc1)c1ccc2ncsc2c1` belongs -2.39%; to `Cc1cccc(C)c1OCCNC(=O)CCC(=O)c1ccccc1`, -0.949%; to `COc1c(Cl)ccc(Cl)c1C(=O)NC(=S)N1CCOCC1`, 25.1%. With `COc1ccc(-c2nnn(CC(=O)N(CC(=O)NCCC(C)C)c3ccccc3)n2)cc1OC`, the “hERG current change (%, negative = inhibition) at 10uM” value is on record as -6.42%. To `O=C(CCCc1ccccc1)N=C1SC2CS(=O)(=O)CC2N1c1ccccc1F` (centres unmarked) belongs -26.4%; to `O=c1[nH]c(C2CCCN(S(=O)(=O)c3ccccc3)C2)nc2c1nnn2Cc1ccc2c(c1)OCCO2` (centres unmarked), -0.905%; to `CCNC(=O)CC1C(=O)N(c2ccc(F)cc2)C(=O)N1Cc1ccccn1` (centres unmarked), -33.2%. To `FC(F)(F)c1nnc2sc(-c3ccccn3)nn12` belongs 12%; to `Cc1cccc(NC(=O)CSCC(=O)NNC(=O)c2ccoc2C)c1`, 7.04%.

As for `COc1cccc(-c2cc(C(F)(F)F)nc(N3CCOCC3)n2)c1`, the “hERG current change (%, negative = inhibition) at 10uM” value came out at 7.16%. Regarding `COc1ccc2nc(N/C(N)=N/C(=S)Nc3ccc(C)c(C)c3)nc(C)c2c1`, the “hERG current change (%, negative = inhibition) at 10uM” value is 10.2%. To `CCN(C(=O)Cn1c(=O)oc2ccccc21)c1cccc(C(F)(F)F)c1` belongs 1.62%.

For `COc1cc(OC)cc(-c2cc3ccc(OC)cc3cn2)c1`, the “hERG current change (%, negative = inhibition) at 10uM” value turned out to be 10.4%. To `COc1ccc2c(c1OC)C(=O)N1c3ccccc3C(=O)N(c3ccccc3F)C21` (centres unmarked) belongs 5.3%; to `COc1cnc(-c2ccccc2)nc1Oc1ccc(Cl)cc1C`, -3.13%; to `CCC(=O)Nc1ccc2c(c1)ncn2-c1ccccc1OC`, -9.67%. To `S=C(NCCCn1ccnc1)Nc1cccc(Cl)c1` belongs -26.5%; to `O=C(NCc1ccccn1)C1C2C=CC(C2)C1C(=O)Nc1ccc(F)cc1` (centres unmarked), -2.92%; to `Cc1ccc(O)c(CNc2nc3ccccc3n2C(C)C)c1`, 12.9%. As for `CC(C)N1CCc2c(sc(NC(=O)Cc3ccccc3)c2C#N)C1.Cl`, the “hERG current change (%, negative = inhibition) at 10uM” value is listed as -16%. To `COc1ccc(CNC(=O)CSc2n[nH]c(N)n2)cc1OC` belongs -77.5%; to `Cc1nc(N)nc(N)c1CCCc1ccc(Cl)c(Cl)c1`, -16.6%; to `COc1ccc(C(=O)OCC(=O)Nc2cc(S(=O)(=O)N3CCOCC3)ccc2N2CCCC2)cc1`, -3.54%. To `Cc1ccc(C(=O)N[C@H](C(=O)OCC(=O)NC2CCS(=O)(=O)C2)C(C)C)cc1` (some centres unmarked) belongs 11.6%. To `O=C(CNC(=O)c1ccccc1F)Nc1ccncc1` belongs 22.8%; to `COc1cc(C(=O)NCc2ccc(-n3cccc3)cc2)cc(OC)c1OC`, 21.3%; to `CCN1CCN(C(=S)c2ccc(Cl)c(Cl)c2)CC1`, -33.1%. Turning to `CCCc1nnc(NC(=O)CCC(=O)NCCc2ccc(OC)c(OC)c2)s1`, the “hERG current change (%, negative = inhibition) at 10uM” value is listed as -7.94%. To `O=C(Cn1nc(-c2ccc(Cl)cc2)ccc1=O)NCC1CCCO1` (centres unmarked) belongs -14.9%. Consider `COc1cc(C(=O)NC(=S)Nc2nc(-c3ccc(F)cc3)cs2)cc(OC)c1OC`, for which the “hERG current change (%, negative = inhibition) at 10uM” value was found to be 12.5%. To `O=C(c1ccco1)N1CCN(C(=O)c2ccccc2Oc2ccccc2)CC1` belongs -30.3%; to `Cc1cc2ncc(-c3ncc(C(F)(F)F)cc3Cl)cn2n1`, -6.94%; to `N#CCCSc1ncnc2c1oc1ccccc12`, 1.66%. To `COc1ccc(NC(=O)N[C@@H](Cc2ccccc2)C(=O)NN)cc1` belongs 4.45%. To `CCN(CC(=O)Nc1ccccc1OC)C(=O)CC1CC2CCC1C2` (centres unmarked) belongs -10.6%; to `COC(=O)c1ccc(NC(=O)c2ccccc2)o1`, 5.33%. With `C=CCNC(=O)NC(=O)COC(=O)[C@H](C)NS(=O)(=O)c1c(C)c(C)cc(C)c1C`, the “hERG current change (%, negative = inhibition) at 10uM” value is given as -11.8%.

For the origin of these results see publication PMC4336329 (PLoS ONE, 2015).
